Only a part is listed here, and it is no random draw. For some assays here: The list includes weakly bound sequences.
What follows are sequences tested against T1, GST-Ap-NF-kB RHD (UniProt A0A913YAJ5) (assay: protein-binding microarray (PBM)). Settings: PBM: ~300 nM protein, 6 mM HEPES pH 7.8, 80 mM KCl, 0.5 mM EDTA, 0.5 mM EGTA, 6% glycerol, 35 ng/ul poly-dIdC, 1% milk, 1 h, room temperature; high values mean tight binding; double strand, one strand shown.
T1 sequence: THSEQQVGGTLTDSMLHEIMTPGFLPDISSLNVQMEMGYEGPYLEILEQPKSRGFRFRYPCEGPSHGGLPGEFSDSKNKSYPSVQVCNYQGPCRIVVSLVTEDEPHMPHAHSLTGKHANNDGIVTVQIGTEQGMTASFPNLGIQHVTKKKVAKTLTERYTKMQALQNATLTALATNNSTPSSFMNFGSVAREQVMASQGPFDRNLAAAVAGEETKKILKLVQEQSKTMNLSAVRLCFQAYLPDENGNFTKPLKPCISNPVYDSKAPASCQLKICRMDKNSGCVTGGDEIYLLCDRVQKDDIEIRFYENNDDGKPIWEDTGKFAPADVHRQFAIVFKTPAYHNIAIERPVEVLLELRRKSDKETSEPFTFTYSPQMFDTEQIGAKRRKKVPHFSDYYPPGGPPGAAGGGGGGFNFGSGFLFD
Sequence “CCGATTAACATCATTGGGAAAAATGATGTTAATCGGGTCTTGATTCGCTTGACGCTGCTG” has a binding signal of 0.96 z-score.
For “CCGATTAACATCAGGCGATCCCCTGATGTTAATCGGGTCTTGATTCGCTTGACGCTGCTG”, the binding signal was 5.05 z-score.
Work on “CCGATTAACATCAAAGGGAATAGTGATGTTAATCGGGTCTTGATTCGCTTGACGCTGCTG” yielded a binding signal of 2.26 z-score.
In the case of “CCGATTAACATCATTCCGGGAAATGATGTTAATCGGGTCTTGATTCGCTTGACGCTGCTG”, the binding signal is reported as 0.945 z-score.
Work on “CCGATTAACATCATAAATTCCCATGATGTTAATCGGGTCTTGATTCGCTTGACGCTGCTG” yielded a binding signal of 2.62 z-score.
Sequence “CCGATTAACATCAATGCACCCCCTGATGTTAATCGGGTCTTGATTCGCTTGACGCTGCTG” has a binding signal of 4.19 z-score.
Work on “CCGATTAACATCAGGGAAACTCATGATGTTAATCGGGTCTTGATTCGCTTGACGCTGCTG” yielded a binding signal of 3.29 z-score.
For “CCGATTAACATCAGGGAACTTTATGATGTTAATCGGGTCTTGATTCGCTTGACGCTGCTG”, the binding signal was 4.27 z-score.
“CCGATTAACATCAATTTGGGAAATGATGTTAATCGGGTCTTGATTCGCTTGACGCTGCTG” showed a binding signal of 0.389 z-score.
“CCGATTAACATCACCCAATTCCCTGATGTTAATCGGGTCTTGATTCGCTTGACGCTGCTG” was tested, and the binding signal was 3.33 z-score.
“CCGATTAACATCAAAATTCCCACTGATGTTAATCGGGTCTTGATTCGCTTGACGCTGCTG” was tested, and the binding signal was 3.89 z-score.
Work on “CCGATTAACATCACAAAACTCCCTGATGTTAATCGGGTCTTGATTCGCTTGACGCTGCTG” yielded a binding signal of 4.94 z-score.
Sequence “CCGATTAACATCAGGGAGTCCCCTGATGTTAATCGGGTCTTGATTCGCTTGACGCTGCTG” has a binding signal of 10.9 z-score.
“CCGATTAACATCATATTGGGAAATGATGTTAATCGGGTCTTGATTCGCTTGACGCTGCTG” showed a binding signal of 0.328 z-score.
Sequence “CCGATTAACATCAGGGAAAACACTGATGTTAATCGGGTCTTGATTCGCTTGACGCTGCTG” has a binding signal of 3.49 z-score.
“CCGATTAACATCAGGGGGTTGACTGATGTTAATCGGGTCTTGATTCGCTTGACGCTGCTG” showed a binding signal of 4.64 z-score.
“CCGATTAACATCAAAGCACCCCCTGATGTTAATCGGGTCTTGATTCGCTTGACGCTGCTG” was tested, and the binding signal was 4.9 z-score.
“CCGATTAACATCAGACTGGGAAATGATGTTAATCGGGTCTTGATTCGCTTGACGCTGCTG” was tested, and the binding signal was 1.4 z-score.
In the case of “CCGATTAACATCACCTTCTTTACTGATGTTAATCGGGTCTTGATTCGCTTGACGCTGCTG”, the binding signal is reported as 0.402 z-score.
In the case of “CCGATTAACATCAGCATTCCCCCTGATGTTAATCGGGTCTTGATTCGCTTGACGCTGCTG”, the binding signal is reported as 7.2 z-score.
In the case of “CCGATTAACATCAGAGATTTCCCTGATGTTAATCGGGTCTTGATTCGCTTGACGCTGCTG”, the binding signal is reported as 3.94 z-score.
“CCGATTAACATCAAAAATCCCACTGATGTTAATCGGGTCTTGATTCGCTTGACGCTGCTG” showed a binding signal of 3.51 z-score.

The sequences below were run against T2, GST-Nv-NF-kB (Cys allele) (UniProt E5G601) (assay: protein-binding microarray (PBM)). Settings: PBM: ~300 nM protein, 6 mM HEPES pH 7.8, 80 mM KCl, 0.5 mM EDTA, 0.5 mM EGTA, 6% glycerol, 35 ng/ul poly-dIdC, 1% milk, 1 h, room temperature; high values mean tight binding; double strand, one strand shown.
T2 sequence: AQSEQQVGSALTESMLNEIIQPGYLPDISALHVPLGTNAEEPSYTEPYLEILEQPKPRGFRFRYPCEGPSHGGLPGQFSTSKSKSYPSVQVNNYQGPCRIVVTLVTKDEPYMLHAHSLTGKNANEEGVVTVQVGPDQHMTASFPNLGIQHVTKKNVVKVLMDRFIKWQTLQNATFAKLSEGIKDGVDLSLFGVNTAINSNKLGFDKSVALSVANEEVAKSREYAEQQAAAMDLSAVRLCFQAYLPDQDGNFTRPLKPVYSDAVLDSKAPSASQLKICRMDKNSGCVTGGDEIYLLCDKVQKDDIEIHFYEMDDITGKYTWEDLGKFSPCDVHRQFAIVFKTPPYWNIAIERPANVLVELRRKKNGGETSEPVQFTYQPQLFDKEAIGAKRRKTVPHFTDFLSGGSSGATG
Work on “CCGATTAACATCATGTATGCCCCTGATGTTAATCGGGTCTTGATTCGCTTGACGCTGCTG” yielded a binding signal of 1.71 z-score.
“CCGATTAACATCAAAAATTCCCATGATGTTAATCGGGTCTTGATTCGCTTGACGCTGCTG” showed a binding signal of 7.75 z-score.
Work on “CCGATTAACATCAGGGGGTCTACTGATGTTAATCGGGTCTTGATTCGCTTGACGCTGCTG” yielded a binding signal of 2.44 z-score.
Sequence “CCGATTAACATCAAAGCCCCCCCTGATGTTAATCGGGTCTTGATTCGCTTGACGCTGCTG” has a binding signal of 4.23 z-score.
“CCGATTAACATCAACGTCCCCCCTGATGTTAATCGGGTCTTGATTCGCTTGACGCTGCTG” showed a binding signal of 3.81 z-score.
“CCGATTAACATCAAAGAGCCCCCTGATGTTAATCGGGTCTTGATTCGCTTGACGCTGCTG” showed a binding signal of 4.16 z-score.
Sequence “CCGATTAACATCAGAAAATCCCATGATGTTAATCGGGTCTTGATTCGCTTGACGCTGCTG” has a binding signal of 4.29 z-score.
With “CCGATTAACATCAAAGAGTCCCCTGATGTTAATCGGGTCTTGATTCGCTTGACGCTGCTG” the binding signal was 6.17 z-score.
For “CCGATTAACATCAGAAATCCCAATGATGTTAATCGGGTCTTGATTCGCTTGACGCTGCTG”, the binding signal was 2.13 z-score.
For “CCGATTAACATCATATTTCCCCATGATGTTAATCGGGTCTTGATTCGCTTGACGCTGCTG”, the binding signal was 7.45 z-score.
“CCGATTAACATCAACCCCCCCCATGATGTTAATCGGGTCTTGATTCGCTTGACGCTGCTG” showed a binding signal of 4.32 z-score.
For “CCGATTAACATCAAGATTTCCCATGATGTTAATCGGGTCTTGATTCGCTTGACGCTGCTG”, the binding signal was 4.42 z-score.
“CCGATTAACATCACCGCCCCACGTGATGTTAATCGGGTCTTGATTCGCTTGACGCTGCTG” showed a binding signal of 1.73 z-score.
In the case of “CCGATTAACATCAGGGGGGGGCATGATGTTAATCGGGTCTTGATTCGCTTGACGCTGCTG”, the binding signal is reported as 4.84 z-score.
Sequence “CCGATTAACATCAGGGGGTAAAATGATGTTAATCGGGTCTTGATTCGCTTGACGCTGCTG” has a binding signal of 4.2 z-score.
Sequence “CCGATTAACATCAAACAAACCCCTGATGTTAATCGGGTCTTGATTCGCTTGACGCTGCTG” has a binding signal of 3.42 z-score.
“CCGATTAACATCAAGGGGGGTGGTGATGTTAATCGGGTCTTGATTCGCTTGACGCTGCTG” was tested, and the binding signal was 3.67 z-score.
With “CCGATTAACATCAGGAAATTCCCTGATGTTAATCGGGTCTTGATTCGCTTGACGCTGCTG” the binding signal was 9.9 z-score.

The sequences below were run against T3, GST-Dm-Relish (UniProt Q94527) (assay: protein-binding microarray (PBM)). Settings: PBM: ~300 nM protein, 6 mM HEPES pH 7.8, 80 mM KCl, 0.5 mM EDTA, 0.5 mM EGTA, 6% glycerol, 35 ng/ul poly-dIdC, 1% milk, 1 h, room temperature; Ap Aiptasia and Nv Nematostella (sea anemones) / Co Capsaspora / Aq Amphimedon (sponge) / Dm Drosophila / Hu human; RHD is the Rel homology domain; high values mean tight binding; most listed sequences are background and not binding sites; double strand, one strand shown.
T3 sequence: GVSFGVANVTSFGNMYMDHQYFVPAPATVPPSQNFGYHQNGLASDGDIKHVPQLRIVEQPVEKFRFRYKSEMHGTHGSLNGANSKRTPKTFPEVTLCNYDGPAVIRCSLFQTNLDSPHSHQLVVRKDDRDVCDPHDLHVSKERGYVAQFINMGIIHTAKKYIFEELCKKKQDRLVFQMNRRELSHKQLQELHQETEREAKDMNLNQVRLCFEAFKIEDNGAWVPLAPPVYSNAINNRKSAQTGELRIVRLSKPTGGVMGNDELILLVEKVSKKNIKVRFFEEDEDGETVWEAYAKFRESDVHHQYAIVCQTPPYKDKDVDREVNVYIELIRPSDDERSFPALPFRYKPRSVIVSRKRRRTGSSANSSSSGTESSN
“CCGATTAACATCATTGGGAAAAATGATGTTAATCGGGTCTTGATTCGCTTGACGCTGCTG” was tested, and the binding signal was 0.862 z-score.
“CCGATTAACATCAGGCGATCCCCTGATGTTAATCGGGTCTTGATTCGCTTGACGCTGCTG” showed a binding signal of 6.53 z-score.
With “CCGATTAACATCAAAGGGAATAGTGATGTTAATCGGGTCTTGATTCGCTTGACGCTGCTG” the binding signal was 0.805 z-score.
“CCGATTAACATCATTCCGGGAAATGATGTTAATCGGGTCTTGATTCGCTTGACGCTGCTG” was tested, and the binding signal was 0.735 z-score.
Sequence “CCGATTAACATCATAAATTCCCATGATGTTAATCGGGTCTTGATTCGCTTGACGCTGCTG” has a binding signal of 5.06 z-score.
“CCGATTAACATCAATGCACCCCCTGATGTTAATCGGGTCTTGATTCGCTTGACGCTGCTG” showed a binding signal of 3.29 z-score.
Sequence “CCGATTAACATCAGGGAAACTCATGATGTTAATCGGGTCTTGATTCGCTTGACGCTGCTG” has a binding signal of 1.31 z-score.
With “CCGATTAACATCAGGGAACTTTATGATGTTAATCGGGTCTTGATTCGCTTGACGCTGCTG” the binding signal was 4.83 z-score.
Sequence “CCGATTAACATCAATTTGGGAAATGATGTTAATCGGGTCTTGATTCGCTTGACGCTGCTG” has a binding signal of 0.485 z-score.
“CCGATTAACATCACCCAATTCCCTGATGTTAATCGGGTCTTGATTCGCTTGACGCTGCTG” showed a binding signal of 1.62 z-score.
With “CCGATTAACATCAAAATTCCCACTGATGTTAATCGGGTCTTGATTCGCTTGACGCTGCTG” the binding signal was 5.55 z-score.
“CCGATTAACATCACAAAACTCCCTGATGTTAATCGGGTCTTGATTCGCTTGACGCTGCTG” showed a binding signal of 5.41 z-score.
Work on “CCGATTAACATCAGGGAGTCCCCTGATGTTAATCGGGTCTTGATTCGCTTGACGCTGCTG” yielded a binding signal of 10.7 z-score.
In the case of “CCGATTAACATCATATTGGGAAATGATGTTAATCGGGTCTTGATTCGCTTGACGCTGCTG”, the binding signal is reported as 0.861 z-score.
With “CCGATTAACATCAGGGAAAACACTGATGTTAATCGGGTCTTGATTCGCTTGACGCTGCTG” the binding signal was 5.1 z-score.
“CCGATTAACATCAGGGGGTTGACTGATGTTAATCGGGTCTTGATTCGCTTGACGCTGCTG” showed a binding signal of 4.51 z-score.
For “CCGATTAACATCAAAGCACCCCCTGATGTTAATCGGGTCTTGATTCGCTTGACGCTGCTG”, the binding signal was 3.26 z-score.
Work on “CCGATTAACATCAGACTGGGAAATGATGTTAATCGGGTCTTGATTCGCTTGACGCTGCTG” yielded a binding signal of 0.367 z-score.
“CCGATTAACATCACCTTCTTTACTGATGTTAATCGGGTCTTGATTCGCTTGACGCTGCTG” showed a binding signal of 0.459 z-score.
Work on “CCGATTAACATCAGCATTCCCCCTGATGTTAATCGGGTCTTGATTCGCTTGACGCTGCTG” yielded a binding signal of 4.53 z-score.
With “CCGATTAACATCAGAGATTTCCCTGATGTTAATCGGGTCTTGATTCGCTTGACGCTGCTG” the binding signal was 2.1 z-score.
With “CCGATTAACATCAAAAATCCCACTGATGTTAATCGGGTCTTGATTCGCTTGACGCTGCTG” the binding signal was 7.7 z-score.

— article PMC5700166
